Experimental data as given in PubChem BioAssay AID1030 (National Center for Advancing Translational Sciences (NCATS), 2008).
Screen size: about 220,000 compounds; about 16,000 (7.3%) were called active. The inconclusive results got no clear call from the source; some entries with a clear call stand among them for comparison. Calls come from the whole dose curve; as a rule, active = well fitted inhibition curve with a large enough effect (not every such curve was filed as active); inconclusive = small, poorly fitted or top-dose-only effect, or another doubt; inactive = no such curve, though single readings can be large or run the other way. Where the call is inconclusive, the potency comes from a doubtful curve fit.

Target: Aldehyde dehydrogenase 1A1 (Homo sapiens) (UniProt P00352)
UniProt P00352, sequence (P00352 whole entry, looked up): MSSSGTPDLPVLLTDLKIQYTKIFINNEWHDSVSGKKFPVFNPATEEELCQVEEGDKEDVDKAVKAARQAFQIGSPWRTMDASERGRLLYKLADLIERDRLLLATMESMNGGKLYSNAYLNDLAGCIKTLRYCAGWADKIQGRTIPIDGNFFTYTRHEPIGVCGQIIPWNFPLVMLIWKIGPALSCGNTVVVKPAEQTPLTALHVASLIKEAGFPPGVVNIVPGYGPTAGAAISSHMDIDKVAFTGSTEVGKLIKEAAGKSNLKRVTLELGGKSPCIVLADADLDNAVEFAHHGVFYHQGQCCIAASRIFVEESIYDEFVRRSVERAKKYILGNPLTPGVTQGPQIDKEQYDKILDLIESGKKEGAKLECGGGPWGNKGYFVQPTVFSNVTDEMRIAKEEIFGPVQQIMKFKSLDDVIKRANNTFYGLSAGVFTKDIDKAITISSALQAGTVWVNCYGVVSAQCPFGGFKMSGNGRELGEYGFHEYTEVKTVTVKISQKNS
Experiment: qHTS Assay for Inhibitors of Aldehyde Dehydrogenase 1 (ALDH1A1);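 for activity, negative = inhibition: plate controls were no enzyme wells and a reference inhibitor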
Settings: Purified ALDH1A1, NADH fluorescence, propionaldehyde substrate; series mostly up to 75.3 µM; activity, negative = inhibition: at the top concentration
Potency is the fitted concentration of half-maximal effect; tags give direction and shape of the fitted curve.

activity, negative = inhibition, inactive:
CCOc1ccc2nc3cc(N=Nc4ccc(N)nc4N)ccc3c(N)c2c1 -3.34% [at 13.5 µM]
CC(=O)Oc1ccccc1C1OCCN1C(C)=O (stereo unspecified) 5.74%
COC(=O)c1c(C)[nH]c(O)c1C=Nc1ccc(Oc2ccccc2)cc1 -15.3%
O=C(CN1CCN(S(=O)(=O)c2ccc(F)cc2)CC1)Nc1cccc(C(F)(F)F)c1 -14.4%
Cc1ccc(C)c(OCCn2c(=O)c3c(ncn3C3CCCC3)n(Cc3ccccc3)c2=O)c1 -2.72%
CN(c1ccc(C(=O)N2CCCCC2)cc1)S(C)(=O)=O 5.98%
Cc1ccc(NC(=O)CN(C)C(=O)COc2cc(F)ccc2[N+](=O)[O-])cc1 4.79%
CCC(C)(C)c1ccc(OCCCC[n+]2cccc(C)c2)c(C(C)(C)CC)c1 -4.2%
CCOc1ccccc1NC(=O)CSc1nnc(-c2ccco2)o1 3.15%
FC(F)(F)c1cnc(Oc2ccc(-c3nnco3)cc2)c(Cl)c1 -3.14%
Cc1cc(N(CCO)CCO)ccc1C(c1ccc(N(CCO)CCO)cc1C)c1ccccc1Cl -3.03%
Cc1cc(C)nc(SCCn2c(N3CCOCC3)nc3c2c(=O)[nH]c(=O)n3C)n1 -0.387%
CCC(=NCCc1c(C)[nH]c2ccc(C)cc12)C1=C(O)CC(c2ccccc2)CC1=O (stereo unspecified) -9.95%
Cn1nnc2cc(C(=O)N3CCN(c4ccccc4)CC3)ccc21 21.4%

Potency, active:
O=C(/C=C/c1ccc([N+](=O)[O-])s1)N1CCCCC1 28.2 µM
CN(C)N1C(=O)CC(N2CCCC2)C1=O (stereo unspecified) 22.4 µM
CS(=O)(=O)N1N=C(c2cccs2)CC1c1ccco1 (stereo unspecified) 20 µM
Cc1[nH]nc2c1C(c1ccccc1F)CC(=O)N2 (stereo unspecified) 22.4 µM
Cc1ccccc1C1c2[nH]c3ccccc3c2CCN1C(=O)c1ccc(=O)n(C)n1 (stereo unspecified) 31.6 µM
S=c1[nH]nc(CCSCc2ccccc2)n1-c1ccccc1 35.5 µM
COc1ccccc1NC(=O)CN1CCN(CC(=O)Nc2ccc(F)cc2)CC1 25.1 µM

Potency, inconclusive:
CCCOC(=O)COC(=O)c1ccccc1NC(=O)c1ccccc1 39.8 µM [inhibitor, single point]
CCOc1cccc(Nc2cc3n(c(=O)n2)CCc2cc(OC)c(OC)cc2-3)c1 25.1 µM [inhibitor, partial curve]
Cc1ccc(S(=O)(=O)NCCNc2ccccc2[N+](=O)[O-])cc1 17.8 µM [inhibitor, partial curve]
COC(=O)CNC(=O)CN1C(=O)N(c2ccccc2)C(N(O)C(=O)Nc2ccccc2)C1(C)C (stereo unspecified) 17.8 µM [inhibitor, partial curve]
CCOc1ccc(C(c2c(NC(=O)c3ccccc3)sc(C)c2C)N2CCN(C)CC2)cc1 (stereo unspecified) 39.8 µM [inhibitor, single point]
O=C1CC2(CCCCC2)Oc2ccc(OCC(=O)N3CCOCC3)cc21 35.5 µM [inhibitor, partial curve]
O=C(c1ccc([N+](=O)[O-])cc1)n1nc(-c2ccccc2)nc1NCc1ccccc1 3.98 µM [inhibitor, partial curve]
O=S(=O)(c1cccs1)N1CCN(CC(O)COC2CCCc3ccccc32)CC1 (stereo unspecified) 39.8 µM [inhibitor, single point]
COCCn1c(=O)c(-c2ccccc2)nc2cnc(OC)nc21 28.2 µM [inhibitor, partial curve]
COc1ccccc1NS(=O)(=O)c1cccc(C(=O)N/N=C/c2cn(-c3ccccc3)nc2-c2ccccc2)c1 20 µM [inhibitor, partial curve]
COc1ccc(S(=O)(=O)N2CCC(O)(c3ccc(Cl)cc3)CC2)cc1 10 µM [inhibitor, partial curve, poor fit]
O=C(Nc1nnc(C2CC2)s1)c1cccc(S(=O)(=O)N2CC(c3ccccc3)CC2=O)c1 (stereo unspecified) 39.8 µM [inhibitor, single point]
COc1cccc(N2CCN(c3cnc4ccccc4n3)CC2)c1 25.1 µM [inhibitor, single point]
CCOc1ccc2[nH]c3c(N4CCN(C(=O)c5ccco5)CC4)ncnc3c2c1 28.2 µM [inhibitor, partial curve]
CN(C)c1ccc(C(CC(=O)O)C(=O)O)cc1 (stereo unspecified) 39.8 µM [inhibitor, single point]
CSc1nc(NCC(C)C)c2c3c(sc2n1)CN(C)CC3 35.5 µM [inhibitor, single point]
CCS(=O)(=O)Nc1ccc(C2=NN(C(C)=O)C(c3cccs3)C2)cc1 (stereo unspecified) 31.6 µM [inhibitor, partial curve]
COc1ccccc1NC(=S)N/N=C1\CC(C)(C)Oc2ccc(O)cc21 25.1 µM [inhibitor, partial curve]
O=[N+]([O-])c1ccc(N(c2ccccc2)c2ccccc2)cc1 14.1 µM [inhibitor, partial curve]
COC(=O)c1cc(NC(=O)C23CCC(C)(C(=O)O2)C3(C)C)cc(C(=O)OC)c1 (stereo unspecified) 14.1 µM [inhibitor, single point]
COc1cccc(C(=O)Nc2cccnc2)c1 44.7 µM [inhibitor, single point]
COc1ccc(C(C(=O)Nc2ccc(C(C)C)cc2)N(C)C(=O)c2ccc(=O)[nH]c2)cc1 (stereo unspecified) 39.8 µM [inhibitor, single point]
CC(C)=CCC/C(C)=C/CCC(C)NCCN1CCNCC1 (stereo unspecified) 44.7 µM [inhibitor, single point]
CC/C(Cc1ccccc1)=N\NC(=O)c1cc([N+](=O)[O-])cc([N+](=O)[O-])c1 20 µM [inhibitor, partial curve]
CC(C)c1cc(NCCCN2CCOCC2)n2c(nc3ccccc32)c1C#N 35.5 µM [inhibitor, partial curve]
